The other results are listed elsewhere or left out.
T1: UNK ZnF1-3 (human, UniProt Q9C0B0 31-174)
T1 sequence: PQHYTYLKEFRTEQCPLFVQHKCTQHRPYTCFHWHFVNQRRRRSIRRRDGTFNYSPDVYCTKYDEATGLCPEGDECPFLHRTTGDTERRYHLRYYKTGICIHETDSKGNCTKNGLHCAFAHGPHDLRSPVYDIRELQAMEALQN

B1: chr6:86333760:86333761:-_ENSG00000135316_ENST00000355238|hu_hu|FALSE|FALSE (ssRNA)
RNA: GGGAGUUCUACAGUCCGACGAUCUUCUUCAAGAAUCUGUUCCUUGGUUUUACUCUUAGGAAUAGAGCCCACAAAAAGCCUAUUGUUGGCAACUGAGAUGCAGACACCAAUAUGUUUUCCAGAACGAAUUUCAUGAUUAUUAUACAACAGAGGAUUGAGCAUCA
B2: chr11:86132931:86132932:-_ENSMUSG00000034297_ENSMUST00000043624|mus_hu|FALSE|FALSE (ssRNA)
RNA: GGGAGUUCUACAGUCCGACGAUCUCCAAAAGGUCCAACUGGAUCAUCCUUGAAUUUAUCACUUGGAAGUUGAGGUGGUAAAAACUCUACAUCUUUUUUCUUUGGGAACUUGUAAUACUUCCAGGCUAUAUUGGCUUCAUCUUCCAACAGAGGAUUGAGCAUCA
B3: chr11:30000241:30000242:-_ENSMUSG00000020315_ENSMUST00000011877|mus_mus|motif|central (ssRNA)
RNA: GGGAGUUCUACAGUCCGACGAUCUAUUUCCAACACAGCCUCACAAAAUUGAGGAACAGUUUAAAUACUGAGAUCGGAUCGGUAUAAUUUCAUUAAAAAAAUCUGGCCUUCCCUCUGUACCUCAAACUUUUUAAACUUGGAGAUCAACAGAGGAUUGAGCAUCA
B4: chr3:180328061:180328062:+_ENSG00000163728_ENST00000412756|hu_hu|FALSE|FALSE (ssRNA)
RNA: GGGAGUUCUACAGUCCGACGAUCGCUCAUGUCUACUGAAAUCACGUGAUCCAGAGUGAGCGUAUUUUUUGUAUUUCUCAACUGACUUCCAAGAGUAUUCUGAGCUUGCUGGUGAGGUAGAAUGCCUCACAGAACCUGGUUCCCCAACAGAGGAUUGAGCAUCA
B5: chr7:75932113:75932114:+_ENSG00000106211_ENST00000248553|hu_hu|hu_hu_hu_mus_False|38_48 (ssRNA)
RNA: GGGAGUUCUACAGUCCGACGAUCCUGCGACCACUCAUCGGGCAACCGGGGCACCCCGAAAGCUUGAUCGAAGAGGCGGCUGUGUGCGUACCAGUCGCGGAAGGGGUGUUCCCAGCUCGGGCUCCGCAGCAGCGAGAAGGGCACCAACAGAGGAUUGAGCAUCA
B6: chr15:31439531:31439532:-_ENSMUSG00000039100_ENSMUST00000090227|mus_hu|FALSE|FALSE (ssRNA)
RNA: GGGAGUUCUACAGUCCGACGAUCAAAUCUGUGCUUGCAUAAUUCACAGUAUUCUUUUCGACUGUGUUUCAGCCAUUGAACUAAGCAUUCUUGAUGGAUAAACUUAAUACUGCCAGUACAUACACAAGGAUGAUAAAGCGGUUUCAACAGAGGAUUGAGCAUCA
B7: chr15:12753431:12753432:-_ENSMUSG00000022195_ENSMUST00000057256|mus_hu|FALSE|FALSE (ssRNA)
RNA: GGGAGUUCUACAGUCCGACGAUCUGGAUGUGAGUCGAAAUGUAAAAAACUUACAUUACUGGCAGGAAGAUGCUUUGAGCCUAUGGCCCGGUAUAUAAAGGGUAGAACCUCCUGAUGAUCCUCCACCACCCACACUGGGAGCUUCAACAGAGGAUUGAGCAUCA
B8: chr1:180793972:180793973:+_ENSG00000143324_ENST00000367589|hu_hu|FALSE|FALSE (ssRNA)
RNA: GGGAGUUCUACAGUCCGACGAUCGAGUACAUGGUUUACUCCAGCCUGUCUCCAACCAUACGUGUUGAUGCCCAGUAGAAAAAGGAAUUCAAUCAGAAGAAAGCCACCCCGAUAGAUUCUUAUCAAGGGCCAUAUACUUCUAUCCAACAGAGGAUUGAGCAUCA
B9: 129497756_129516252_352_5pUTR_ENSMUSG00000028788_ENSMUST00000030578|mouse|control|control (ssRNA)
RNA: GGGAGUUCUACAGUCCGACGAUCUAAAUGUGCAACGUAUAUUCCAACGAAAAACGCUGGCAAGCUGGGGACUGGGCAUUGAAGGCCGGCGGAGGCGGGAGCGAGGAGGCGCCUCUCUCCUCAGUCACCUCGGCGGCGGCGGCGCAACAGAGGAUUGAGCAUCA
B10: chrX:71549400:71549401:+_ENSMUSG00000019087_ENSMUST00000019231|mus_hu|mus_mus_mus_hu_False|68_98 (ssRNA)
RNA: GGGAGUUCUACAGUCCGACGAUCGCAGUAGGAAGAGCAAACCUUUCCAGUCCAGUGCGCUGCAGGGAGAAACAUGAACAACACGGACACCGUCCCACCCUCAACCCCCCCACUGGCACAGGGUCACACAAUCUGGGUCAAAGACAACAGAGGAUUGAGCAUCA
B11: chr3:121486967:121486968:-_ENSMUSG00000028127_ENSMUST00000029770|mus_mus|motif|central (ssRNA)
RNA: GGGAGUUCUACAGUCCGACGAUCUCCAAUUGCACUUGUUAACUUGAAAAUAUAUAAAACUAUGUCUAAAAAUGGCUUACGGAGAUUUGAAUACAGAUCGACUACACUGUUACAAAAUUUUUCUACAUCCUGUGUAAGCAGCUGCAACAGAGGAUUGAGCAUCA
B12: chrX:20248820:20248821:+_ENSMUSG00000001924_ENSMUST00000001989|mus_mus|mus_mus_mus_hu_True|48_108 (ssRNA)
RNA: GGGAGUUCUACAGUCCGACGAUCGGCAAAGUCAGUCACCACAAAGUCAGGUUCUGCCAGUGAGGCCACCAAGGAUUUAAAGCUAAUCUUUUUCGGUACUUUGACCUGACUGACGAUGCCUCCACGGAUGUAGUCGGAGAAGUUCAACAGAGGAUUGAGCAUCA
B13: chr16:94651144:94651145:+_ENSMUSG00000040785_ENSMUST00000117648|mus_hu|mus_mus_mus_hu_True|8_8 (ssRNA)
RNA: GGGAGUUCUACAGUCCGACGAUCAUUUUCUUGAAUCAAGUGGCGAAUAACAUAGUCCACUGCUUCAUUUAGAAAAUUUCUGCUAGAAAAACAGGUUGUAUAGUCUUCUGUGCUCAAAACUUUCCAAGAGAGCAGCUCUUUGAGCAACAGAGGAUUGAGCAUCA
B14: 61873076_61873196_2987_3pUTR_ENSMUSG00000024580_ENSMUST00000062991|mouse|control|control (ssRNA)
RNA: GGGAGUUCUACAGUCCGACGAUCGAUCCCAGAGCCAAUCUGACGAAGGCCAAGAAUCAGGGCUGGUAGAACCAGCCACUGUAGGUAAUUAGCUAUACGAAUGUUAUUUGGGUCAUUUGCUGUUGGCGCUGCCUAAAAUUGCUUCAACAGAGGAUUGAGCAUCA

What follows are binders tested against T1, UNK ZnF1-3 (assay: nsRBNS (natural sequence RNA bind-n-seq); RBNS binding buffer (assumed for nsRBNS): 25 mM Tris pH 7.5, 150 mM KCl, 3 mM MgCl2, 0.01% Triton X-100, 500 ug/ml BSA, 20 U/ml SUPERase-In, 4 C; UNK is unkempt and MSI1 is Musashi-1; names of the RNAs are library labels; protein concentration not given here; high values mean tight binding).

Binder | binding signal
B1 | 0.789 enrichment R
B2 | 0.684 enrichment R
B3 | 1.94 enrichment R
B4 | 0.88 enrichment R
B5 | 0.676 enrichment R
B6 | 0.866 enrichment R
B7 | 1.22 enrichment R
B8 | 0.777 enrichment R
B9 | 1.99 enrichment R
B10 | 2.26 enrichment R
B11 | 1.61 enrichment R
B12 | 0.897 enrichment R
B13 | 0.752 enrichment R
B14 | 0.978 enrichment R
